Data taken from PubChem BioAssay AID504339 (National Center for Advancing Translational Sciences (NCATS), 2011).
Hit rate of the full screen: of about 390,000 compounds, about 17,000 (4.4%) were called active. The inconclusive results got no clear call from the source; some entries with a clear call stand among them for comparison. Calls follow the shape of the dose curve; as a rule, active = well fitted inhibition curve with a large enough effect; inconclusive = small, poorly fitted or top-dose-only effect; inactive = no such curve, though single readings can be large or run the other way. A potency beside an inconclusive call is a rough fit, not a confirmed value.

These molecules were tested against Lysine-specific demethylase 4A (Homo sapiens) (UniProt O75164) (assay: qHTS Assay for Inhibitors of JMJD2A-Tudor Domain). Conditions: AlphaScreen JMJD2A-Tudor / H3K4me3 peptide binding; activity change, negative = inhibition: at 114 µM (top of the series).
% is scaled to controls: 0 for no effect and ±100 for the full control effect; potency is read from the fitted curve at half-maximal effect; tags tell the direction and shape of the fitted curve.
Also: nearly all actives have a fitted effect of over 50% in size.

Chain of UniProt O75164 (O75164 whole entry, looked up, the tested form may be a part): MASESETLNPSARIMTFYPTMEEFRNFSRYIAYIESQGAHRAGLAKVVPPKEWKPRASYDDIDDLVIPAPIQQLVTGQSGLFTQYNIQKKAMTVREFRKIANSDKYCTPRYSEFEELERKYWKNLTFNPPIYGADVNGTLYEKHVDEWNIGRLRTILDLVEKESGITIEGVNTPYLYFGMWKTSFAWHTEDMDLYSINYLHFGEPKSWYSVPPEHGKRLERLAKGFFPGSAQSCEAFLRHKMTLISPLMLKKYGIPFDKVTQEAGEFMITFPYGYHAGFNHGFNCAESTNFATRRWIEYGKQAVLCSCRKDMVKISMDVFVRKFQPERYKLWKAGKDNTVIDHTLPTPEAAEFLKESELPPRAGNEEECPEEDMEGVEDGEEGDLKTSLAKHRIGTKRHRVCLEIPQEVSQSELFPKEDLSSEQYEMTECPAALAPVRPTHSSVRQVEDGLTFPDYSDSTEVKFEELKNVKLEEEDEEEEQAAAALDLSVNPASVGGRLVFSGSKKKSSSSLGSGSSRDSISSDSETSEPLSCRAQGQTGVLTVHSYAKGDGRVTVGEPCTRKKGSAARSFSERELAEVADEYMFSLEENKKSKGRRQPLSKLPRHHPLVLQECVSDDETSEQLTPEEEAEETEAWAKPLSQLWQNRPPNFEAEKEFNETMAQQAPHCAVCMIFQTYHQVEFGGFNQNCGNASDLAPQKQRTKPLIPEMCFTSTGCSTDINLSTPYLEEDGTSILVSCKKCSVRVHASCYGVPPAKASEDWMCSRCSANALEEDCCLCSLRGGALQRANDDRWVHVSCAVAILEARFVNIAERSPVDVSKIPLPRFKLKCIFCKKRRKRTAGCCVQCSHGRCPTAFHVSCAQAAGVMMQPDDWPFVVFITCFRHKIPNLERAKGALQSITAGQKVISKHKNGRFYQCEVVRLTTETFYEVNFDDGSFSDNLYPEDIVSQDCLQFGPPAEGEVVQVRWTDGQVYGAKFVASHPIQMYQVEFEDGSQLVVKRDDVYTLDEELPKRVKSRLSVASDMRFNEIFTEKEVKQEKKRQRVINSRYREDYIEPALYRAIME

Potency, inconclusive:
COCCN=C1NN=C(c2ccc(C)c([N+](=O)[O-])c2)CS1 44.7 µM [inhibitor, single point]
Cc1ccc(OCC(=O)Nc2nnc(S(=O)(=O)N3CCC(C)CC3)s2)cc1 39.8 µM [inhibitor, partial curve]
CCOC(=O)c1cnc2c(Cl)c(Cl)ccc2c1Nc1ccc(N(C)C)cc1 70.8 µM [inhibitor, partial curve]
CCOC(=O)c1c(-c2ccc(C)o2)csc1NC(=S)NC(=O)c1ccccc1Br 25.1 µM [inhibitor, full curve]
CN1CCc2nc(SCC(=O)Nc3cccc(F)c3)c(C#N)c(-c3cccs3)c2C1 56.2 µM [inhibitor, partial curve]
CCN(CC)CCNC(=O)c1ccc(NC(=O)c2cn(-c3ccccc3)nc2-c2cccs2)cc1 35.5 µM [inhibitor, full curve, poor fit]
O=[N+]([O-])c1c(C(Cl)Cl)nn(-c2ccccc2)c1N1CCOCC1 44.7 µM [inhibitor, partial curve]
COc1cccc(-c2csc(N3CCN(C(=O)C4CCCCC4)CC3)n2)c1 50.1 µM [inhibitor, partial curve]
O=S(=O)(NCc1cn2ccccc2n1)c1cc(F)ccc1F 28.2 µM [inhibitor, single point]
CCOc1ccc(NC(=O)c2cnn3c2NC(c2ccccc2)=CC3c2cccc(OC)c2OC)cc1 (centres undefined) 44.7 µM [inhibitor, partial curve]
COc1ccc(N(C)C(=O)c2ccc3c(Cl)c4c(nc3c2)CCCC4)c(OC)c1 50.1 µM [inhibitor, partial curve]
O=C(CN1CCN(c2ccccn2)CC1)Nc1ccc(OCc2ccccc2)cc1 56.2 µM [inhibitor, partial curve]
COc1ccc(NC(=S)NC(=O)c2cncc(Br)c2)c(OC)c1 31.6 µM [inhibitor, single point]
O=C(Nc1ccc2c(c1)OCO2)c1c[nH]c(=O)n(-c2ccc(F)cc2)c1=O 39.8 µM [inhibitor, partial curve]
COC(=O)c1ccc(NC(=S)N2CCN(Cc3ccc(Cl)cc3)CC2)cc1 39.8 µM [inhibitor, full curve]
Cc1cc(N2C(=O)C(=O)/C(=C(/O)c3ccc(F)cc3)C2c2ccc(F)cc2)no1 (centres undefined) 89.1 µM [inhibitor, single point]
Cc1cccc(/N=C/c2c(O)cc(C)oc2=O)n1 44.7 µM [inhibitor, partial curve]
Cc1ccc(C(=O)c2cc([N+](=O)[O-])ccc2N2CCOCC2)cc1C 25.1 µM [inhibitor, single point]
Cc1ccc(NC(=O)N(Cc2c[nH]c3ccccc23)C2CCCCCC2)cc1C 11.2 µM [inhibitor, full curve, poor fit]
CC(C)(C)c1ccc(/C=N/Nc2ccc(C(=O)O)cc2)cc1 31.6 µM [inhibitor, single point]
O=C(OCCN1CCOCC1)c1ccccc1 39.8 µM [inhibitor, partial curve]
Cn1ccnc1SCc1cn2ccccc2n1 50.1 µM [inhibitor, partial curve]
CCOC(=O)C1CCCN(C2CC(=O)N(c3cccc(C)c3)C2=O)C1 (centres undefined) 39.8 µM [inhibitor, full curve, poor fit]
COc1cccc(C(=O)NN/C(C)=C/C(=O)C(F)(F)C(F)(F)C(F)(F)F)c1 56.2 µM [inhibitor, partial curve]
COc1ccc(CCNC(=O)c2ccn[nH]2)cc1OC 3.16 µM [inhibitor, partial curve]
Cc1cc(N2CCOCC2)nc2ccc(NC(=S)NCc3ccc4c(c3)OCO4)cc12 22.4 µM [inhibitor, partial curve]
O=C(Nc1ccc(N2CCCCC2)cc1)c1ccc2c(c1)OCCO2 56.2 µM [inhibitor, partial curve]
CC(C)C(=O)N1CCN(c2ccc([N+](=O)[O-])c(NC(C)c3ccccc3)c2)CC1 (centres undefined) 28.2 µM [inhibitor, full curve]
CN(C)CCN=Cc1c(O)n(Cc2ccc3c(c2)OCO3)c(=O)c2ccccc12 44.7 µM [inhibitor, partial curve]

Potency, active:
CCOC(=O)C(=O)NCC(c1ccco1)S(=O)(=O)c1cccs1 (centres undefined) 11.2 µM
Cc1ccc2[nH]c(=O)c3cc(C(=O)NC(C)C)sc3c2c1 31.6 µM
O=[N+]([O-])c1cc(/C=N/O)ccc1Sc1ccccc1 56.2 µM
Cc1ccc(NC(=O)c2ccc(Cl)c(N3C(=O)C=CC3=O)c2)cc1 7.94 µM

Activity change, negative = inhibition, inactive:
Cc1ccc(-n2c(SCCN)nnc2-c2cccc(C)c2)cc1 -16.2% [at 11.4 µM]
CCNC(=O)C1CCCN1S(=O)(=O)c1ccc(OC)cc1 (centres undefined) -6.06%
CCCCn1c(N)c(N(CCC(C)C)C(=O)COC(=O)c2ccccc2)c(=O)[nH]c1=O 7.56%
Clc1ccc(-c2nnn3c2nc(N2CCCCC2)c2ccccc23)cc1 55%
OCC1OC(n2nc3ccccc3n2)C(O)C(O)C1O (centres undefined) -0.581%
CCOC(=O)c1ccc(S(=O)(=O)N2CCN(Cc3cc4c(cc3O)OCO4)CC2)cc1 -21.1%
Cc1cc(C)c(S(=O)(=O)NCC2CCC(C(=O)NCc3ccccn3)CC2)c(C)c1 (centres undefined) -3.53%
CC(Sc1nnc(C(F)(F)F)n1C)C(=O)Nc1ccc(N2CCOCC2)cc1 (centres undefined) -6.38%
COc1ccccc1CCC(=O)OCC(=O)Nc1c(Br)cc(C)cc1Br -12%
COc1ccc(C(=O)NNC(=S)NC(=O)c2cccc([N+](=O)[O-])c2)cc1 -17.2%
O=C(Nc1cccc(Cl)c1)Nc1ccccc1-n1ccnc1 -10.8%
